Measured values from the RNAGym collection of RNA variant scans (doi:10.1073/pnas.2313332121).
This sample is rich in variants without activity.

B1: TPR 5TU (parent)
chain: GGAUCUUCUCGAUCUAACAAAAAAGACAAAUCUGCCACAAAGCUUGAGAGCAUCUUCGGAUGCAGAGGCGGCAGCCUUCGGUGGCGCGAUAGCGCCAACGUUCUCAACUAUGACACGCAAAACGCGUGCUCCGUUGAAUGGAGUUUAUCAUG

Variants of: B1
Test: polymerase ribozyme fitness, log enrichment relative to wild type (log ratio); higher = more active; in vitro selection for triplet polymerase activity
How it was run: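 After PCR construction and transcription, each subunit's mutant library from a heterodimeric triplet polymerase ribozyme was annealed with a biotinylated primer, the partner subunit and triplets. Incubation was frozen, at −7 °C, and extended constructs were gel-excised, bound to streptavidin beads and amplified by RT-PCR, in one selection round done in triplicate. Fitness is the logarithm of a genotype's enrichment divided by that of the wild type, from inverse-variance-weighted replicate averages of Illumina-sequenced inputs and outputs. The base of the logarithm is 2, and genotypes needed ≥10 input reads and ≥1 read per output.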

Variant	polymerase ribozyme fitness (log ratio)
GGAUCUUCUCGAUCUAACUAAAAAGACAAAUCUACCACAAAGCUUGUGAGCAUCUUCGGAUGCAGAGGCGGCAGCAUUCGGUGGCGCGAUAGCGCCAACGUUCUCAACUAUGACAUGCAAAACGCGUGCUCCGUUGAAUGGAGUUUAUCAUG [A19U G34A A47U C76A C116U]	≤ -4.2
GGAUCUUCUCGAUCUAACUAAAAAGACAAAUCUGCCACAAAGCUUGAGAGCAUCUUCGGAUGCAGAGGCGGCAGUCUUCGGUGGCGCGAUAGCGCCAACGUUCUCAACUAUGACACGCAAAACGCGUGCUCCGUUGAAGAGAGUUUAUCAGG [A19U C75U U139G G140A U151G]	≤ -4.2
GGAUCUUCUCGAUCUAACUAAAAAGACAAAUCUGCCACAAAGCUUGAGAGCAUCUUCGGAUGGAGAGGCAGCAGCCUUCGGUGGCGCGAUAGCGCCGACGUUCUCAACUAUGACACGCAAAACGCGUGCUCCGUUGAAUGGAGUUUAUCAUG [A19U C63G G70A A97G]	≤ -4.2
GGAUCUUCUCGAUCUAACUAAAAAGACAAAUCUGCCACAAAGCUUGAGAGCAUCUUCGGAUGCAGAGGCGGCAGCCUUCGGUGGCGAGAUAGCGCCAACGUUCUCAACUAUGACACGCAAAACGCGUGCUCCGUUGAAUGGAGUUUAUCAUG [A19U C87A]	≤ -4.2
GGAUCUUCUCGAUCUAACUAAAAAGACAAAUCUGCCACAAAGCUUGAGAGCAUCUUCGGAUGCAGAGGCGGCAGCCUUCGGUGGCGUGAUAGCGCCAACGUUCUCAACUAUGACACGCAAAACGCGUGCUCCGUUGAAUGGAGUUUAUCAUG [A19U C87U]	-0.845
GGAUCUUCUCGAUCUAACUAAAAAGACAAAUCUGCCACAAAGCUUAAGAGCAUCUUCGGAUGCAGAGGCGGCAGCCUUCGGUGUCGCGAUAGCGCCAACGUUAUGAAGUAUGACACGCAAAACGCGUGCUGCGUUGAAUGCAGUUUAUCAUG [A19U G46A G84U C103A C105G C108G C131G G141C]	≤ -4.2
GGAUCUUCUCGAUCUAACUAAAAAGACAAAUCUGCCACAAAGCUUGAGAGCAUCUUCGGAUGCAGAGGCGGCAGCCUUCGGUGGCGCGAUAGCGCGAACGUUCUCAACUAUGACACGCAAAACGCGUGCUCCGUUGAAUGGCGUUUAUCAUG [A19U C96G A142C]	-2.72
GGAUCUUCUCGAUCUAACUAAAAAGACAAAUCUGCCACAAAGCUUAAGAGUAUCUUCGGAUGCAGAGGCGGCAGCCUUCGGUGGCGCGAUGGCGCCAACGUUCUCAACUAUGACACGCAAAACUCGUGCUCCGUUGAAAGGAGUUUAUCAUG [A19U G46A C51U A91G G124U U139A]	≤ -4.2
GGAUCUUCUCGAUCUAACUAAAAAGACAAAUCUGCCACAAAGCUUGAGAGCAUCUUCGGAUGCAGAGGCGGCAGCCUUCGGUGGUGCGAUAGCGCCAACGUGCUCAACUUAGACUCGCCAAACGCGUGCUCCGUUGUAUGGAGUUUAUCAUG [A19U C85U U102G A110U U111A A115U A119C A137U]	≤ -4.2
GGAUCUUCUCGAUCUAACUAAAAAGACAAAUCUGCCACAAAGCUUGAGAGCAUCUUUGGAUGCCGAGGCGGCAGCCUUCGGUGGUGCGAUUGCGCCAACGUUCUCAAGUAUGACACGCAAAACGCGUGCUCCGUUGAAUGGAGUUUAUCAUG [A19U C57U A64C C85U A91U C108G]	≤ -4.2
GGAUCUUCUCGAUCUAACUAAAAAGACAAAUCUGCCACAAAGCUUGAGAGCAUCUUCGGAUGCAGAGGCGGCAGCCUUCGGUGGCGCGAUAGCGCCAACGUUCUCAACUAUGAGACGCAAAACGCGUGCUCCGUUGAAUGGAGUUUAUCAUG [A19U C114G]	-3.52
GGAUCUUCUCGAUCUAACUAAAAAGACAAAUCUGCCACAAAGCUUGAGAGCAUCUUCGGAUGCAGAGGCGGCAGCCUUCGGUAGCGCGAUAGCGCCAACGUUCUCAACUAUGACACGCAAAACGCGUGCUCCGUUGAAUGGAGUUUAUCAUG [A19U G83A]	-0.555
GGAUCUUCUCGAUCUAACUAAAAAGACAAAUCUGCCACAAAGCUUGAGAUCAUCUUCGGAUGCAGAGGCGGCAGCCUUCGGUGGCGCGAUAGCGCCAACGUUCUCAACUAUGACACGCAAAACGCGUGCUCCGUUGAAUGGAGUUUAUCAUG [A19U G50U]	-0.0269
GGAUCUUCUCGAUCUAACUAAAAAAACAAAUCUGCCACAACGCUUAAGAGCAUCAUCGAAUGCAGAGCCGGGAGCCUUCGGUGGCGCGAUAGCGCUGACUUUCUCAACUAUGACACGCAAAACGCGUGCUCCGUUGAAUGGAGUGUAUCAUG [A19U G25A A41C G46A U55A G59A G68C C72G C96U A97G G100U U145G]	≤ -4.2
GGAUCUUCUCGAUCUAACUAAAAAGACAAAUCUUCCACAAAGCUUGAGAGCAUCUUCGGAUGCAGAGGCGGCAGCCUUCGGUGGCGCCAUAGUGCCAACGUUCUCAACUAUGACACGCAAAACGCGUGCUCCGUUGAAUGGAGUUUAUCAUG [A19U G34U G88C C93U]	≤ -4.2
GGAUCUUCUCGAUCUAACUAAAAAGACAAAUCUGCCACAAAGCUUGAGAGCAUCUUCGGAUGCAGAGUCGGCAGCCUUCGGUGGCGCGAUAGCGCUAACGUUCUCAACUAUGACACGCAAAACGCGUGCUCCGUUGAAUGGAGGUUAUCAUU [A19U G68U C96U U144G G152U]	≤ -4.2
GGAUCUUCUCGAUCUAACUAAAAAGACAAAUCUGCCACAAAGCUUGAGAGCAUCUUCGGAUCCACAGGCGGCAGCCUUCGGUGGCGCGAUAGCGCAAACGUUCUCAACUAUGACACGCAAAACGCGUGCUCCGUUGAAUGGAGUUUAUCAUG [A19U G62C G65C C96A]	≤ -4.2
GGAUCUUCUCGAUCUAACUAAAAAGACAAAUCUACCACAAAGCUUGAGAGCAUCUUCGGCUGCAGAGGCGGCAGCCUUCGGUAGCGCGAUAGCGCGAACGCUCUCAACUAUGACACGCAAAACGCGUGCUCCGUUGAAUGGAGCUUAUCAUG [A19U G34A A60C G83A C96G U101C U144C]	≤ -4.2
GGAUCUUCUCGAUCUAACUAAAAAGACAAAUCUGCCACAAAGCUUGAGAGCAUCUUCGGAUGCAGAGCCGGCAGCCUUCGGUGGCGCGAUAGGGCCAACGUUCUCAACUAUGACACGCAAAACGCGUGCUGCGUUGAAUGGAGUUUAUCAUG [A19U G68C C93G C131G]	≤ -4.2
